# Measured values reported in the supplement of paper PMC11417369.
# The other results are listed elsewhere or left out.
# Tested on: PF3D7_0420300 AP2 domain 1 (GST-tagged)
# Assay: gcPBM binding intensity (ln(normalized median fluorescence intensity)); higher = stronger DNA binding
# Procedure, shortened: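 Plasmodium falciparum DNA-binding domains carrying a GST tag were expressed in E. coli and applied for 1 h, at about 25 μg on average, to an Agilent 4 × 180k array. The array held primer-extended double-stranded 36-bp intergenic genomic probes together with negative controls, and binding took place in 1× PBS with 1% milk, 0.2 mg/ml BSA, 0.5% salmon testes DNA and 0.03% Triton X-100. An Alexa488 anti-GST antibody detected bound protein, and the array was scanned at 488 nm. Binding intensity is taken as the highest Masliner-normalised natural-log median intensity across replicate spots of either probe orientation.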
row,Sequence,gcPBM binding intensity (ln)
1,TTTTTTTTTTTTGATGCACACACCTGAACGAGTTAA [CACACA_site317],9.42
2,AAAATATGTATGTAAAGTACTAATATACAAATTTTT [XGTACX_site5186],9.26
3,ATATATATATATATATGTACATATGTCAACTGTCTA [XGTACX_site8636],9.61
4,CATACATACAAACACACACACATATATATACATACA [CACACA_site852],10.2
5,TATGTATTAATGAGAACATGCAAAATAATAAACAAT [TGCATGCA_site362],9.72
6,ATATATCAAATAGACAAACACACAAAGGAAGAGTGA [CACACA_site3922],9.89
7,CATATACACGAACACACACACACACGCACAAAAAAA [CACACA_site6376],10.2
8,CACAGACACGGACACACACACACACCCAGACACATA [CACACA_site4357],10.2
9,ATAATTAATGATGTATGTACGGAATTTATATATTTG [XGTACX_site5685],9.19
10,ATAGTAATAGAATGATTGCACTTAAATTTTCCCTCT,9.19
11,GTATACATATTTATAATAATAAATGTCTTATATTTT [CACACA_negctrl_site688],9.17
12,TAATATATTAATATATGTACGTATTTTTATTAATAT [XGTACX_site5346],9.14
13,TTAAATAATTCTTTTAGTACACACGAATAAGCAGAT [XGTACX_site623],9.49
14,TATCTTATATATAAGTGTACGCAGATTCTTACGATA [XGTACX_site6058],8.98
15,TTTGTTCTTTTTGAAGTGCACTGAAATATAACAAAA,8.82
16,AAAAAAACACACACATATATATATATATATATATAT [GTGCAC_negctrl_site498],9.62
17,AAGAAAAAGAATAACCTTATTTCTATATACTAATTT [TGCATGCA_negctrl_site477],8.93
18,ATCAAAATTGTCATTACACACCTTTATTTTTATAAT [CACACA_site5071],9.46
19,AATAATATATGGACATGTACATAATATATATTTTTT [XGTACX_site312],9.29
20,TTCATATAATTCATCTGTACATATTGATAGTATGCA [XGTACX_site6386],9.1
21,TGTTTTATTTATTAAGCACACGCGATTTAAAAAATA [CACACA_site981],8.93
22,TCAAATGTGTAATCTTGTACACATTAAAAGAAAAAA [XGTACX_site8822],9.19
23,AAAAAAAACGGACACACACACATTCAATATAAAACA [CACACA_site4189],10.2

row,Sequence,gcPBM binding intensity (ln)
1,GTATTAATATATAATTGTACTTTTTTTTTTTTTTTT [XGTACX_site4369],9.2
2,ATCACCAAATGGGCTATACAACAATGAGAAATGGTA [CACACA_negctrl_site48],9.22
3,TTTTTATATTTTACATGTACATAAATATATTATATA [XGTACX_site958],9.28
4,AATAATGAATTGAAATGTACATATTTTTATTAATAC [XGTACX_site8899],9.13
5,ATACGAAGAAATGTTCATTTATTTCGAACATTTAAT [CACACA_negctrl_site1481],9
6,TTTTTCATAAAACACACACACAAAAATAATGTGGAA [CACACA_site3687],9.8
7,AATATAATATAATATAGTACGTAAAAATATTATACA [XGTACX_site2170],9.47
8,TCCACTTAACTCAATTGTACAAAAATAAAAATTAAA [XGTACX_site855],8.85
9,TTTTATGCGCAATAAGTGCATTTAAAATATATATAT,8.97
10,ATAATATATATATATATATTATCAAATATATATATA [GTGCAC_negctrl_site346],8.96
11,TGTGTATATCGATAAAGTACATTTGAAAAGTGACTT [XGTACX_site6957],9.21
12,GTAATATGTATCCATACACACATACAGTTTATTTGC [CACACA_site6540],9.59
13,AAATTATATATGATGTGTACATAAATATATACACAT [XGTACX_site8761],9.3
14,ATGTATTTATTTTAACGTACAAGATATTATTATTAT [XGTACX_site4609],9.3
15,AAATTATAATATAATACACACATAAAAAAAAAAAAA [CACACA_site7],9.47
16,ATATGGCATATTTGTATTATACATACATATGTATCT [TGCATGCA_negctrl_site562],9.5
17,TATATTTAGAGAGAGACACACAAAGGGACTTACACA [CACACA_site2545],9.65
18,TTATTATTCAAGAGGAGTACATTATGTGTATAATAT [XGTACX_site4995],9.2
19,CTAATTGTGTATACCTGTACATATATATATATATAT [XGTACX_site416],9.34
20,AATACAAAAAAAGGTACACACATAATATATTTATTA [CACACA_site2628],9.84
21,TTAACTTTTTTATATGCACACATAAACAAGGATATA [CACACA_site8932],9.21
22,TGTTATTCTACATATACACACAAATAACAATTTAAA [CACACA_site1824],9.36
23,AAAAAAAAAAAGAACACACACAGTGCACATTCGGTG [CACACA_site788],9.7

row,Sequence,gcPBM binding intensity (ln)
1,TTTCCCTCAAATAAAGTGCATTATGATTTTAATTTA,9.08
2,TTATTATTTGGTTATAGTACATAATATAATATATAT [XGTACX_site6911],9.15
3,TATATATATATGTATGCATGTTGTTTTTTATTTAAT [TGCATGCA_site343],9.57
4,CTATATTTCGTTGGACGTACAAATGTGATAATTAGG [XGTACX_site3232],9.09
5,TTTCTTTTTTCACGTGCATGCCATTTAAGTATTAAT [TGCATGCA_site651],9.55
6,GAATTATAAGAATAAACACACAAGCTTAAAAAAAAA [CACACA_site1204],9.45
7,AGAATTCAACAATGTTGTACATACACACACACAAAA [XGTACX_site5035],9.97
8,TTTGTTTGGTTTTGGTGTACTTTTTTTTTTTTTTCT [XGTACX_site2050],9.71
9,ACATATGTATAATATGCACACGTCATTTTCCCCTTA [CACACA_site5194],9.47
10,ACTAAACTTATATGTACACACATATAACATTAATTT [CACACA_site2258],9.59
11,TAATTCTTGTAAAATGTGCGCAGTAGATATAGTTTT,9.27
12,AGATATAAGAAAAGCACACACACACTAGAAAAAAAA [CACACA_site5559],10.2
13,ATAAAATTATATACGTGTACATATATATATTTATGT [XGTACX_site4653],9.19
14,ATATTTATTCAATCCAGTACATATTATATATTGTAT [XGTACX_site184],9.33
15,TAATAAATAGGACACACACACATATTTATATATCAT [CACACA_site6771],9.99
16,CCTTTAAGCAAAAACACACACACATATTTATTTATA [CACACA_site6294],9.9
17,AATTTTTTTTTTTTGTTGCACTTTTAGAGTTTTAAT [GTGCAC_site9519],9.21
18,TATAAAAGTGGACACACACACATATATATATATATA [CACACA_site4673],9.65
19,ACACATCAAATATAAAAAAAAAATAACTATAAATAA [CACACA_negctrl_site587],9.36
20,TTGCAAAATTGTTTTATCACAAATATATACTTAATA [CACACA_negctrl_site403],9.01
21,TAATTATTTTCGGTACGTACTAATGTATATATAATT [XGTACX_site3895],9.2
22,TAATAATTTTTTTTTTTTTTTTACGAAAATATGATT [GTGCAC_negctrl_site323],8.82
23,ATAATAAGAACTCAGTGTACTATCCTTTGAATTAAC [XGTACX_site8117],9.32

row,Sequence,gcPBM binding intensity (ln)
1,AACGTCTTTTTTTTTTTTTTTCTTTTTTTTTTTATT [CACACA_negctrl_site303],9.46
2,TGTATGCTTACATAATGTACGGAAAAATAAAGGCAT [XGTACX_site6923],9.43
3,ATATATAAATAATGTTGTACGTATTTCAAAAGTATG [XGTACX_site3363],9.24
4,ATAATAATAATAAAAAGTACAAATTATTATATATAT [XGTACX_site5160],9.42
5,TGCTCTCTCTTGTTGTGTACATAATACAATATATAT [XGTACX_site7427],9.6
6,ATATATTTGTATAATAGTACGTACAGGCAAAATATA [XGTACX_site7396],9.42
7,TACATTTAAAAAAAAACACACATATATATATATATA [CACACA_site2535],8.99
8,TTTCTTTTTATATTCACACATAAATATATATATATA [CACACA_site6053],9.19
9,AAAAAAAAAAAACACACACACACATACCCATACATA [CACACA_site5575],10.1
10,ATATAAAAATATAATACACACATAAAATATATTATA [CACACA_site969],9.71
11,TATATAAGGAAATATTGTACTTTTATATTTATATTA [XGTACX_site3814],9.13
12,AAAAAAAAAAAAAAAACACACAGAAATATATATATA [CACACA_site4611],9.55
13,AAAGAAGGGAAACACACACACACACCCACAAAAAAA [CACACA_site3766],9.98
14,AATAAAAAAAAAATAAATTTAATAATAATAATAAAA [CACACA_negctrl_site569],9.05
15,TGTATATATATTTATGCATGCTGTGTGTATTCTTTT [TGCATGCA_site74],9.78
16,TTTATATATTTTAGGAGTACATTAAATTATACCTTA [XGTACX_site5600],9.01
17,TATAACAAAAAAAAATAAAAAATAAAACTATATATA [CACACA_negctrl_site504],9.28
18,TTTTTTTTTTATTCTTCACACATTTCCAATAAAAAA [CACACA_site5601],9.16
19,ACCTAAAATAACTACACACACATAAAAAAAAAAAAA [CACACA_site2529],9.9
20,GTTATTATATATATGTGTACTTAAAAATTTTATGTC [XGTACX_site6084],9.33
